The supplement of paper PMC4967469

Tests used:
Assay in all cases: Viability of human cancer cell lines after 72 h of drug (GDSC screen)
Y-39983 = compound: C[C@@H](N)c1ccc(C(=O)Nc2ccnc3[nH]ccc23)cc1 [Y-39983]; settings: top dose 20 µM; top dose inferred
Procedure: (§1)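 Human cancer cell lines in 384-well plates, medium with 10% serum, drug for 72 h over a 256-fold dose range (nine 2-fold or five 4-fold steps up to the top dose). Adherent lines were fixed and stained with the nucleic acid dye Syto60, suspension lines read with resazurin; signal relative to control wells, capped at 0 and 100%. One two-parameter sigmoid per drug and line, fitted in a mixed model over all curves with the slope shared within a line.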

TPCA-1 = compound: NC(=O)Nc1sc(-c2ccc(F)cc2)cc1C(N)=O [TPCA-1]; settings: top dose 20 µM
Procedure: as §1

PLX4720 = compound: CCCS(=O)(=O)Nc1ccc(F)c(C(=O)c2c[nH]c3ncc(Cl)cc23)c1F [PLX4720]; settings: top dose 10 µM
Procedure: as §1

Epothilone B = compound: C/C(=C\c1csc(C)n1)[C@@H]1C[C@@H]2O[C@]2(C)CCC[C@H](C)[C@H](O)[C@@H](C)C(=O)C(C)(C)[C@@H](O)CC(=O)O1 [Epothilone B]; settings: top dose 0.032 µM; top dose inferred
Procedure: as §1

PHA-793887 = compound: CC(C)CC(=O)Nc1n[nH]c2c1CN(C(=O)C1CCN(C)CC1)C2(C)C [PHA-793887]; settings: top dose 10.24 µM
Procedure: as §1

[1] = screen: GDSC drug entry 1371, top dose inferred

Cell Line	AUC (Y-39983)	IC50 (Y-39983) [µM]	AUC (TPCA-1)	IC50 (TPCA-1) [µM]	AUC (PLX4720; screen: GDSC drug entry 1036)	IC50 (PLX4720; screen: GDSC drug entry 1036) [µM]	AUC (PLX4720; [1])	IC50 (PLX4720; [1]) [µM]	AUC (Epothilone B)	IC50 (Epothilone B) [µM]	AUC (PHA-793887)	IC50 (PHA-793887) [µM]
22RV1 (prostate, adherent)	0.958	> 20	0.913	> 20	0.981	> 10	0.962	> 10	0.679	0.00717	0.878	> 10.2
A375 (melanoma, adherent)	0.978	> 20							0.229	0.000393	0.991	> 10.2
BICR31 (head and neck, adherent)	0.962	> 20	0.933	> 20					0.486	0.00183	0.968	> 10.2
CFPAC-1 (pancreas, adherent)	0.984	> 20	0.949	> 20					0.424	0.0012	0.853	9.93
Caov-3 (ovary, adherent)	0.973	> 20	0.886	17.5					0.776	0.0112	0.584	1.06
H290 (mesothelioma, adherent)					0.983	> 10	0.988	> 10	0.654	0.00514	0.931	> 10.2
HCC202 (breast, adherent)	0.977	> 20	0.966	> 20	0.926	> 10	0.978	> 10	0.812	0.0266		
HPAC (pancreas, adherent)	0.979	> 20	0.722	7.04					0.47	0.00161	0.66	2.15
IGR-37 (melanoma, adherent)	0.988	> 20			0.262	0.141	0.313	0.198	0.394	0.00106	0.989	> 10.2
IM-95 (stomach, adherent)	0.915	> 20	0.83	13.8					0.569	0.00312	0.749	3.53
JHOS-2 (ovary, adherent)	0.973	> 20	0.668	3.98	0.882	> 10	0.959	> 10			0.967	> 10.2
JHOS-3 (ovary, adherent)	0.981	> 20	0.887	> 20	0.98	> 10	0.962	> 10			0.947	> 10.2
JHU-029 (head and neck, adherent)					0.962	> 10	0.95	> 10	0.436	0.00128		
KMS-11 (myeloma, suspension)	0.955	> 20	0.806	8.47	0.954	> 10	0.978	> 10			0.892	8.95
KP-1N (pancreas, adherent)					0.948	> 10	0.921	> 10	0.506	0.00207		
KYAE-1 (oesophagus, suspension)	0.968	> 20	0.821	13.2	0.933	> 10	0.966	> 10			0.827	7.16
NCC021 (kidney, adherent)	0.896	> 20	0.819	13.8	0.948	> 10	0.966	> 10			0.985	> 10.2
NCI-H630 (large intestine, adherent)	0.983	> 20	0.877	> 20	0.987	> 10	0.987	> 10			0.986	> 10.2
NCI-H1734 (lung adenocarcinoma, adherent)	0.951	> 20	0.901	> 20					0.779	0.0144	0.82	6.64
NCI-H2023 (lung adenocarcinoma, adherent)	0.979	> 20	0.927	> 20	0.938	> 10	0.974	> 10			0.947	> 10.2
NCI-H2228 (lung adenocarcinoma, adherent)	0.962	> 20	0.861	> 20					0.316	0.000465	0.95	> 10.2
OACM5-1 (oesophagus, semi-adherent)	0.854	19	0.509	1.33	0.958	> 10	0.985	> 10			0.635	1.59
OACp4C (oesophagus, adherent)	0.681	4.48	0.489	1.16	0.974	> 10	0.973	> 10			0.851	> 10.2
OC-314 (ovary, adherent)	0.946	> 20	0.771	6.63	0.951	> 10	0.981	> 10			0.702	2.15
OV-7 (ovary, adherent)	0.767	11.5	0.852	> 20	0.864	> 10	0.771	6			0.836	> 10.2
OV-17R (ovary, adherent)	0.945	> 20	0.86	> 20	0.977	> 10	0.973	> 10			0.981	> 10.2
OV-56 (ovary, adherent)	0.96	> 20	0.961	> 20	0.946	> 10	0.985	> 10			0.903	> 10.2
OVCA420 (ovary, adherent)	0.965	> 20	0.904	> 20	0.982	> 10	0.975	> 10			0.979	> 10.2

The IC50 comes from the fitted curve, where viability falls to half of the control; where the fit passes the top or lowest dose, that dose stands as a limit. AUC sums up the same curve from the lowest dose to the 256-fold higher top dose: 1 means no effect, lower means more sensitive. For some assays here: The top dose, if marked as inferred, is not printed in the source and was worked back from the curve model. For some assays here: Where an entry number is given, a second screen of the drug exists; the two often differ.
